Assay results reported in the supplement of paper PMC10369915.
The list shows a part of the results. Rule as the data show it: active = 3.2 or more and inactive = the rest. Only a few entries rise above the background.

Tests used:
Test in all cases: enrichment score (SH2-bound / input frequency) (ratio); bacterial display of known human phosphotyrosine sites (pTyr-Var adds point mutants) read by sequencing; higher = stronger binding; tyrosines were phosphorylated by kinases first
Details in all cases: peptide library: pTyr-Var
[1] = molecular target: SHP2 C-SH2 domain E139D
[2] = molecular target: SHP2 C-SH2 domain wild-type
[3] = molecular target: SHP2 N-SH2 domain L43F
[4] = molecular target: SHP2 N-SH2 domain T42A
[5] = molecular target: SHP2 N-SH2 domain T52S
[6] = molecular target: SHP2 N-SH2 domain wild-type

Measured: enrichment score
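Also: displayed peptides selected on beads carrying the immobilized SH2 domain, with library peptides lacking any tyrosine serving as negative controls.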

B1: GRM3_Y480_G475D_YF (peptide)
chain: DGKFSYLKVGH
inactive: [1] 0.905 | [2] 0.891 | [3] 0.997 | [4] 0.789 | [5] 0.803 | [6] 0.827

B2: GSR_Y150_R153C (peptide)
chain: EKRDAYVSCLN
inactive: [1] 0.827 | [2] 0.796 | [3] 0.527 | [4] 0.48 | [5] 0.565 | [6] 1

B3: GRM3_Y478_G475D (peptide)
chain: NVDGKYSYLKV
inactive: [1] 0.869 | [2] 0.952 | [3] 0.656 | [4] 1.21 | [5] 0.749 | [6] 0.669

B4: GSTO1_Y139 (peptide)
chain: QNKEDYAGLKE
inactive: [1] 0.422 | [2] 0.534 | [3] 0.618 | [4] 0.645 | [5] 0.495 | [6] 0.637

B5: GSS_Y270_Y270H_YF (peptide)
chain: FFRDGHMPRQF
inactive: [1] 0.843 | [2] 0.665 | [3] 0.649 | [4] 0.797 | [5] 0.716 | [6] 0.841

B6: GSDMC_Y26 (peptide)
chain: LTPVKYLLSAT
inactive: [1] 1.33 | [2] 1.24 | [3] 1.11 | [4] 0.8 | [5] 1.15 | [6] 0.938

B7: GRIN3B_Y601 (peptide)
chain: EWRSPYGLTPR
inactive: [1] 0.755 | [2] 0.62 | [3] 0.578 | [4] 0.606 | [5] 0.682 | [6] 0.783

B8: GSTA3_Y74_N73D (peptide)
chain: RAILDYIASKY
inactive: [1] 1.31 | [2] 1.25 | [3] 1.53 | [4] 1.03 | [5] 1.36 | [6] 1.36

B9: GSR_Y150 (peptide)
chain: EKRDAYVSRLN
inactive: [1] 0.693 | [2] 0.643 | [3] 0.617 | [4] 0.661 | [5] 0.541 | [6] 0.667

B10: GSS_Y270_Y270C_YF (peptide)
chain: FFRDGCMPRQF
inactive: [1] 0.875 | [2] 0.802 | [3] 0.782 | [4] 0.722 | [5] 0.795 | [6] 1.14

B11: GSS_Y270_Y270C (peptide)
chain: YFRDGCMPRQY
inactive: [1] 0.647 | [2] 0.833 | [3] 0.769 | [4] 0.661 | [5] 0.511 | [6] 0.945

B12: GSTA1_Y147 (peptide)
chain: SHGQDYLVGNK
inactive: [1] 0.629 | [2] 0.855 | [3] 0.665 | [4] 0.638 | [5] 0.637 | [6] 0.898

B13: GSTA3_Y74_YF (peptide)
chain: RAILNYIASKF
inactive: [1] 0.638 | [2] 0.578 | [3] 0.734 | [4] 0.674 | [5] 0.78 | [6] 0.692

B14: GRIN2D_Y736_YF (peptide)
chain: SFMVRYNQPRV
inactive: [1] 1.49 | [2] 1.28 | [3] 1.3 | [4] 1.4 | [5] 1.36 | [6] 1.34

B15: GRM3_Y480_G475D (peptide)
chain: DGKYSYLKVGH
inactive: [1] 0.681 | [2] 0.607 | [3] 0.545 | [4] 1.07 | [5] 0.474 | [6] 0.84

B16: GSTA3_Y74_I71L (peptide)
chain: RALLNYIASKY
inactive: [1] 1.35 | [2] 1.16 | [3] 1.39 | [4] 1.15 | [5] 1.31 | [6] 1.34

B17: GRM3_Y478_G475D_YF (peptide)
chain: NVDGKYSFLKV
inactive: [1] 0.825 | [2] 0.825 | [3] 0.795 | [4] 0.591 | [5] 0.73 | [6] 0.707

B18: GSTA2_Y147_V149A (peptide)
chain: SHGQDYLAGNK
inactive: [1] 0.598 | [2] 0.685 | [3] 0.526 | [4] 0.599 | [5] 0.64 | [6] 0.503

B19: GRIN3B_Y601_R598C (peptide)
chain: EWCSPYGLTPR
inactive: [1] 0.899 | [2] 0.772 | [3] 0.971 | [4] 0.607 | [5] 0.857 | [6] 0.95
